{"source": "PubChem BioAssay AID1347073", "about": "(National Center for Advancing Translational Sciences (NCATS), 2019)", "note": "Out of some 45,000 compounds screened, about 200 (0.44%) were called active. Not shown: some 7% with an inconclusive outcome. Calls follow the shape of the dose curve; as a rule, active = well fitted activation curve with a large enough effect; inconclusive = small, poorly fitted or top-dose-only effect; inactive = no such curve, though single readings can be large or run the other way. The list shows a part of the results."}
{"experiment": "qHTS of TDP-43 Inhibitors: NCGC Sytravon Library Screen; also: 0% is about no effect; nearly all actives have a fitted effect of over 55% in size", "settings": "yeast TDP-43 toxicity rescue, BacTiter-Glo growth, 24 h; series mostly up to 46.1 µM; growth rescue (activation): at the top concentration", "outline": "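TDP-43-expressing yeast, pregrown in raffinose, seeded at OD600 0.02 in galactose medium with compound for 24 hr at 30 deg C. Growth read by BacTiter-Glo luminescence, so rescue of toxicity appears as activation.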"}
{"smiles": "Cc1cc(C)c(NC(=O)c2oc3ccccc3c2COc2ccccc2)c(C)c1", "growth rescue (activation)": "inactive: 4.87%"}
{"smiles": "COc1ccc(NC(=S)N(CCN2CCOCC2)C2CCN(C(C)=O)CC2)cc1Cl", "growth rescue (activation)": "inactive: -5.72%"}
{"smiles": "CCOC(=O)C1CCN(c2ccc([N+](=O)[O-])cc2)CC1", "growth rescue (activation)": "inactive: 10.3%"}
{"smiles": "COc1ccc(C2=NN(C(=O)CCC(=O)O)C(c3ccc(F)cc3)C2)cc1", "note": "(stereo not drawn)", "growth rescue (activation)": "inactive: -0.285%"}
{"smiles": "CCN1/C(=C/c2ccc3ccccc3[n+]2CCCS(=O)(=O)[O-])C=Cc2cc(C)ccc21", "growth rescue (activation)": "inactive: -29%"}
{"smiles": "CCCCc1c(C)nc2ccc(C(=O)OCC)cc2c1Cl", "growth rescue (activation)": "inactive: 21.1%"}
{"smiles": "O=C(CCCNC(=O)c1ccc(Cl)cc1)Nc1cccc(F)c1", "growth rescue (activation)": "inactive: 12.4%"}
{"smiles": "COCOc1cccc(CN2CCC2(C)C(=O)NCCNC(C)=O)c1", "note": "(stereo not drawn)", "growth rescue (activation)": "inactive: 2.86%"}
{"smiles": "Cc1ccc(-n2c(-c3ccco3)n[nH]c2=S)cc1", "growth rescue (activation)": "inactive: 0.753%"}
{"smiles": "CCC12CC3CC(C1)CC(C(=O)NNC(N)=O)(C3)C2", "growth rescue (activation)": "inactive: 5.65%"}
{"smiles": "O=C(CN1CCN(C(=O)c2ccco2)CC1)Nc1ccccc1", "growth rescue (activation)": "inactive: 1.04%"}
{"smiles": "CNc1c(NS(=O)(=O)c2cc(NC(C)=O)ccc2C)c(=O)oc2ccccc12", "growth rescue (activation)": "inactive: 6.21%"}
{"smiles": "CCN1CCN(c2cc(N3CCN(C(=O)c4ccco4)CC3)c3c4c(onc24)-c2ccccc2C3=O)CC1", "growth rescue (activation)": "inactive: -12%"}
{"smiles": "O=C(O)c1cccc(NC(=S)N/N=C/c2c[nH]c3ccccc23)c1", "growth rescue (activation)": "inactive: 9.9%"}
{"smiles": "COc1ccc(Br)cc1CN1CCN(C(=O)c2cccc(F)c2)CC1", "growth rescue (activation)": "inactive: -11%"}
{"smiles": "Cc1cccn2c1nc(=S)n2C(=O)c1ccco1", "growth rescue (activation)": "inactive: 4.05%"}
{"smiles": "CCOC(=O)c1c(NC(=O)/C=C/c2ccc(OC)cc2)sc2c1CCC(C)C2", "note": "(stereo not drawn)", "growth rescue (activation)": "inactive: 1.47%"}
{"smiles": "Cc1ccc(-c2csc(NC(=O)C[n+]3cc(-c4ccccc4)n4c3CCC4)n2)cc1", "growth rescue (activation)": "inactive: -28.3%"}
{"smiles": "COc1ccccc1NS(=O)(=O)c1cc(N)ccc1N1CCCC1", "growth rescue (activation)": "inactive: 4.93%"}
{"smiles": "Cc1cccc2[nH]c(CN(C)Cc3nc(CC4CC4)no3)nc12", "growth rescue (activation)": "inactive: 4.14%"}
{"smiles": "FC(F)(F)c1cnc(C(c2ccccc2)c2ncn[nH]2)c(Cl)c1", "note": "(stereo not drawn)", "growth rescue (activation)": "inactive: 0.853%"}
{"smiles": "COc1ccc(Cl)cc1C(=O)Nc1ccc(NC(C)=O)cc1", "growth rescue (activation)": "inactive: 13.6%"}
{"smiles": "COCC(=O)Nc1cc([N+](=O)[O-])ccc1OC", "growth rescue (activation)": "inactive: -0.0743%"}
{"smiles": "COc1ccc(NC(=O)CSc2nnnn2Cc2ccccc2)cc1", "growth rescue (activation)": "inactive: 11.6%"}
{"smiles": "NS(=O)(=O)c1ccc(NC(=S)N2CCN(Cc3ccc(Cl)c(Cl)c3)CC2)cc1", "growth rescue (activation)": "inactive: -6.69%"}
{"smiles": "N#CCC(=O)Nc1ccc(C(=O)OCC(=O)Nc2ccccc2Sc2ccccc2)cc1", "growth rescue (activation)": "inactive: 17.1%"}
{"smiles": "COc1ccc(-c2nn(-c3ccccc3)cc2/C=C\\C(=O)N2CCOCC2)cc1[N+](=O)[O-]", "growth rescue (activation)": "inactive: 12.8%"}
{"smiles": "COc1ccc(CCCc2nnc(SCC(=O)NN)o2)c(C)c1", "growth rescue (activation)": "inactive: 9.27%"}
{"smiles": "CCCn1c(=N)n(CC(=O)c2ccc(Cl)c(Cl)c2)c2ccccc21", "growth rescue (activation)": "inactive: 26.5%"}
{"smiles": "COc1ccc(-c2[nH]ncc2C(=O)NCc2ccccc2OC)cc1", "growth rescue (activation)": "inactive: 6.42%"}
{"smiles": "NC(=O)NC(c1ccc(Cl)cc1)c1ccccc1Cl", "note": "(stereo not drawn)", "growth rescue (activation)": "inactive: 7.2%"}
{"smiles": "Cc1nc2ccc(NC(=S)N3CCN(c4ccccn4)CC3)cc2nc1C", "growth rescue (activation)": "inactive: 2.19%"}
{"smiles": "CC(=O)Nc1ccc(S(=O)(=O)Nc2ccc3c(c2)n(C)c(=O)n3C)c(C)c1", "growth rescue (activation)": "inactive: 14.8%"}
{"smiles": "COc1cccc(-c2cnc(C(O)c3ccc(SC)cc3)[nH]2)c1", "note": "(stereo not drawn)", "growth rescue (activation)": "inactive: 3.36%"}
{"smiles": "O=C(COc1ccc(/C=N/NC(=O)CSCc2ccc([N+](=O)[O-])cc2)cc1)NCc1ccco1", "growth rescue (activation)": "inactive: -26.2%"}
{"smiles": "COc1ccc(-n2nc(C(=O)NCc3cc(OC)ccc3OC)c3c4ccccc4n(C)c3c2=O)cc1", "growth rescue (activation)": "inactive: 5.82%"}
{"smiles": "Cn1cc(C(=O)c2ccc(Cl)cc2Cl)cc1C(=O)O", "growth rescue (activation)": "inactive: 8.91%"}
{"smiles": "COc1ccc(C2(c3ccc(OC)cc3)NC(=O)N(CC(=O)NC(C)C)C2=O)cc1", "growth rescue (activation)": "inactive: -2.44%"}
{"smiles": "CC(=O)Oc1ccc(C(=O)Nc2cccc(C(=O)c3cccc(NC(=O)c4ccc(OC(C)=O)cc4)c3)c2)cc1", "growth rescue (activation)": "inactive: 11%"}
{"smiles": "O=C(N/N=C/C1C(c2ccccc2)C1(Cl)Cl)c1cccc(Cl)c1", "note": "(stereo not drawn)", "growth rescue (activation)": "inactive: -5.08%"}
{"smiles": "C/C(N)=C(/C#N)C(=O)CSc1nnc(-c2ccc(OC(F)F)cc2)o1", "growth rescue (activation)": "inactive: -16.7%"}
{"smiles": "Cc1ccc(SCc2cn3cc(Cl)ccc3n2)cc1", "growth rescue (activation)": "inactive: 9.95%"}
{"smiles": "COc1cccc(C(C(=O)NC(C)(C)C)N(CCC(C)C)C(=O)CCC(=O)Nc2cc(C)on2)c1OC", "note": "(stereo not drawn)", "growth rescue (activation)": "inactive: -1.87%"}
{"smiles": "Cc1ccc(NC(=O)C2CC(Cl)=CCC2C(=O)O)c([N+](=O)[O-])c1", "note": "(stereo not drawn)", "growth rescue (activation)": "inactive: -10.3%"}
{"smiles": "CCCc1nnc(NC(=O)CS(=O)(=O)c2ccccc2)s1", "growth rescue (activation)": "inactive: 1.67%"}
{"smiles": "COc1ccc(CNC(=O)CN2CCN(C(c3ccccc3)c3ccccc3)CC2)cc1", "growth rescue (activation)": "inactive: -1.74%"}
{"smiles": "CCN(CC)S(=O)(=O)c1ccc(/C=C/C(=O)O)cc1", "growth rescue (activation)": "inactive: 4.08%"}
{"smiles": "CCOc1ccc(C2NC(=O)NC(C)=C2[N+](=O)[O-])cc1OC", "note": "(stereo not drawn)", "growth rescue (activation)": "inactive: 6.95%"}
{"smiles": "CCOC(=O)C1=C(C)NC(=S)NC1C", "note": "(stereo not drawn)", "growth rescue (activation)": "inactive: 14.2%"}
{"smiles": "O=C(c1cc(=O)c2ccccc2o1)N1CCN(c2ccccc2)CC1", "growth rescue (activation)": "inactive: 32.5%"}
{"smiles": "Cc1sc(NC(=S)NC(=O)c2ccco2)c(C#N)c1C", "growth rescue (activation)": "inactive: -4.44%"}
{"smiles": "CCOC(=O)c1c(NC(=O)C2CC=CCC2C(=O)O)sc(C)c1CC", "note": "(stereo not drawn)", "growth rescue (activation)": "inactive: 3.63%"}
{"smiles": "O=C(COc1cccnc1[N+](=O)[O-])Nc1c(Cl)cccc1Cl", "growth rescue (activation)": "inactive: 9.28%"}
{"smiles": "NC(=O)c1cccc(Nc2nc(C(N)Cc3ccc(C(F)(F)F)cc3)cs2)n1", "note": "(stereo not drawn)", "growth rescue (activation)": "inactive: 22.4%"}
{"smiles": "CCCc1cc(C(=O)Nc2cc(C)ccc2O)no1", "growth rescue (activation)": "inactive: 5.25%"}
{"smiles": "CCc1nn(C(C)C(=O)Nc2cccc(C)c2C)c(=O)c2cc3occc3n12", "note": "(stereo not drawn)", "growth rescue (activation)": "inactive: 34.7%"}
{"smiles": "COCCCNS(=O)(=O)c1ccc2[nH]c(=O)[nH]c2c1", "growth rescue (activation)": "inactive: 7.11%"}
{"smiles": "COCCC(=O)N1CCC(Oc2ccc(C(=O)NCc3cccc(C)n3)cc2)CC1", "growth rescue (activation)": "inactive: -10.4%"}
{"smiles": "COc1ccccc1-c1ccc2c(c1)C(C)(Cc1cccc(C#N)c1)C(=O)N2", "note": "(stereo not drawn)", "growth rescue (activation)": "inactive: 11.1%"}
{"smiles": "N#C/C(=C\\c1ccc(OC(=O)c2ccc(Br)s2)cc1)c1nc2ccccc2[nH]1", "growth rescue (activation)": "inactive: -10.3%"}
{"smiles": "CCOCCOc1nc(C)cc(C)c1S(=O)(=O)c1ccccc1C", "growth rescue (activation)": "inactive: 12.5%"}
{"smiles": "CN(C1CCS(=O)(=O)C1)S(=O)(=O)c1ccccc1", "note": "(stereo not drawn)", "growth rescue (activation)": "inactive: 5.42%"}
{"smiles": "CC(=O)c1ccc(N(C(=O)CS(=O)CC(=O)Nc2ccc(F)cc2)C(C(=O)NC2CCCCC2)c2cccs2)cc1", "note": "(stereo not drawn)", "growth rescue (activation)": "inactive: 13.4%"}
{"smiles": "CN(C)c1nc(C#N)nc(N(C)C)n1", "growth rescue (activation)": "inactive: 6.16%"}
{"smiles": "CCOc1ccc(CNS(=O)(=O)c2c(C)nc3scc(C)n3c2=O)cc1OC", "growth rescue (activation)": "inactive: -11.4%"}
{"smiles": "Cc1cccc(N2CCC(N3CCN(C4CCCCC4)C(CCO)C3)CC2)c1C", "note": "(stereo not drawn)", "growth rescue (activation)": "inactive: -1.5%"}
{"smiles": "N=c1sccn1CC(=O)NCc1ccc(Cl)cc1Cl", "growth rescue (activation)": "inactive: -4.76%"}
{"smiles": "CC(Cc1cccs1)NC(=S)Nc1ccccc1", "note": "(stereo not drawn)", "growth rescue (activation)": "inactive: 19.4%"}
